In the RNAGym collection of RNA variant scans (doi:10.1073/pnas.2313332121):
Variants at the background level are over-represented here.

B1: TPR 5TU (parent)
chain: GGAUCUUCUCGAUCUAACAAAAAAGACAAAUCUGCCACAAAGCUUGAGAGCAUCUUCGGAUGCAGAGGCGGCAGCCUUCGGUGGCGCGAUAGCGCCAACGUUCUCAACUAUGACACGCAAAACGCGUGCUCCGUUGAAUGGAGUUUAUCAUG

Variants of: B1
Assay: polymerase ribozyme fitness, log enrichment relative to wild type (log ratio); higher = more active; in vitro selection for triplet polymerase activity
Outline: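 Fitness measures genotype enrichment against wild-type enrichment on a logarithmic scale, with inverse-variance-weighted averaging of replicates. The logarithm is base 2, and genotypes were kept only with ≥10 input reads and ≥1 read per output in Illumina sequencing. The sequenced libraries came from one triplicate in vitro selection round, including frozen incubation at −7 °C, of PCR-built, transcribed mutant libraries of each subunit of a heterodimeric triplet polymerase ribozyme.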
With GGAUCUUCUCGAUCUAACAAAAUUGACAAAUCUGCCACAAAGCUUGAGAGCAUCAUCAGAUGCAGAGGCGGCAGCCUUCGGUGGCGCGUUGGCGCCAACGUUCUCAACUGUGACACGCAAAACGCGUGCUUCGUUGAAUGGAGUUUAUCAUG [A23U A24U U55A G58A A89U A91G A110G C131U] the “polymerase ribozyme fitness (log ratio)” value was no more than -4.2.
With GGAUCUUCUCGAUCUAACAAAAUCUACAAAUCUGCCACAAAGCUUGAGAGCAUCUUCGGAUGCAGAGGCGGCAGCCUUCGGUGGCGCGAUAGCCCCAACGUUCUCAACUAUGACACGCCAAAAGCGUGCUCCGUUGAAUGCAGUUUAUCAUG [A23U A24C G25U G94C A119C C123A G141C] the “polymerase ribozyme fitness (log ratio)” value was no more than -4.2.
With GGAUCUUCUCGAUCUAACAAAAUUGACAAAUCUGCCACAAAGCUUGAGAGCAUAUACGGAUGCAGAGGCGGCAGCCUUCGGUGGUGCGAUAGCGCCAACGUUCCCAACUAUGACACGCAAAACGCAUGCCCCGUUGAAUGGAGUUUAUCAUG [A23U A24U C54A U56A C85U U104C G126A U130C] the “polymerase ribozyme fitness (log ratio)” value was no more than -4.2.
In the case of GGAUCUUCUCGAUCUAACAAAAUAGACAAAUCUGCCCCAAAGCUUGAGAGCAUCUUCGGAUGCAGAUGCGGCAGCCUUCGGUGGCGCGAUAGCGCCAACGUUCUCAAUUAUGACACGCAAAACGCGUGCUCCGUCGAAUGUAGUUUAUCAUG [A23U A37C G67U C108U U135C G141U], the “polymerase ribozyme fitness (log ratio)” value is reported as no more than -4.2.
With GGAUCUUCUCGAUCUAACAAAAUAGACAAAUCUGCCACAAAGCUUGGGAGCAUCUUCGGAUGCAGAGGCGGCAGCCUUCGGUGGCGCGAUAGUGCCAACGUUCUCAACUAUGACACGCAAAACGCGCGCUGCGUUGAAUGGAGUUUAUCAUG [A23U A47G C93U U127C C131G] the “polymerase ribozyme fitness (log ratio)” value was no more than -4.2.
For GGAUCUUCUCGAUCUAACAAAAUCGACAAAUCUGCCACAAAGCUUGAGAGUAACUUCGGAUGCAGAGGCGGCAGCCUUCGGUGGCGCGAUAGCGCCAUCGUUCUCAACUAUGACACGCAAAACGCGUGCUCCGUUGAAUGGAGUUUAUCAUG [A23U A24C C51U U53A A98U], the “polymerase ribozyme fitness (log ratio)” value was no more than -4.2.
For GGAUCUUCUCGAUCUAACAAAAUAGACAAGUCUGCCACAAAGCUUGACAGCAUCUUCGGAUGCAGAGGCGGCGGCCUUCGGUGGCGCGAUAGCGCUAACGUUCUCAACUAUGACACGCAAAACGCGUGCUCCAUUGAAUGGAGUAUAUCCUG [A23U A30G G48C A73G C96U G133A U145A A150C], the “polymerase ribozyme fitness (log ratio)” value was no more than -4.2.
For GGAUCUUCUCGAUCUAACAAAAUAGACUAAUCUGCCACAAAGCUUGAGAGCAUUUUCGGAUGCAGAGGCGGCAGCGUUCGGUGGAGCGAUAGCGCCAACGUUCUGAACUAUGACACGCAAAACGCGUGCUCCGUUGAAUGGAGUUUAUCAUG [A23U A28U C54U C76G C85A C105G], the “polymerase ribozyme fitness (log ratio)” value was no more than -4.2.
In the case of GGAUCUUCUCGAUCUAACAAAAUAGACAAAUCUGCCACAGAGCAUGAGAUCAUCUUCGGAUGCAGAGGCGGCAGCCUUCGGUGGCGCGAUAGCGCCAACGUUCUCAACUAUGACACGCAAAACGCGUGCUCCGUUGAAUGGAGUUUAUCAUG [A23U A40G U44A G50U], the “polymerase ribozyme fitness (log ratio)” value is reported as no more than -4.2.
For GGAUCUUCUCGAUCUAACAAAAUAGACAAAUCUGCCACAAGGCUUGAGAGCAACUUCGGAUGCAGAGGCGGCAGCCUUCGGUGGCGCGAUAGCGCCAACGUUCUCAACUAUGACACGCAAAACGCGUGCUCCGUUGAAUGGAGUUUAUCCUG [A23U A41G U53A A150C], the “polymerase ribozyme fitness (log ratio)” value was no more than -4.2.
In the case of GGAUCUUCUCGAUCUAACAAAAUAGACAAAUCUGCCACAACGCUUGUGAGCAUCAUCGGAUGCGGAGGCGGCAGCCUUCGGUGGCGCAAUAGCGCCAACGUUCUCAACUAUGACACGCAAAACUCGUGCUCCGUUGAAUGGAGUUUAUCAUG [A23U A41C A47U U55A A64G G88A G124U], the “polymerase ribozyme fitness (log ratio)” value is reported as no more than -4.2.
For GGAUCUUCUCGAUCUAACAAAAUAGACGAAUCUGCCACAAAGCUUUAAAGCAUCUUGGGAUGCAGAGGCGGCAGCCUUCGCUGGCGCGAUAGCGGCAACGUUCUCAACUAUGACACGCAAAACGCGUGCUCCGUUGAAUGGAGUUUAUCAUG [A23U A28G G46U G48A C57G G81C C95G], the “polymerase ribozyme fitness (log ratio)” value was no more than -4.2.
In the case of GGAUCUUCUCGAUCUAACAAAAUAGACCAAUCUGCCACAAACCAUGGGAGCAUCUUCGGAUGCAGAGGCGGCAGCCUUAGGUGGCGCGAUAACGCCAACGUUCUCAACUAUGACACGCAAAACGCGUGCUCCGUUGAAUGGGGUUUAUCAUG [A23U A28C G42C U44A A47G C79A G92A A142G], the “polymerase ribozyme fitness (log ratio)” value is reported as no more than -4.2.
For GGAUCUUCUCGAUCUAACAAAAUAGACUAAUCUGCCACAAUGCUUGAGAGCAUCUUCGGAUGCGGAGGCGGCAGUCUUCGGUGGCGCGAUAGCGCCAACGUUCUCAACUAUGACACGCAUAACGCGUGCUCCGUUGAAUAGAGUUUAUCAUG [A23U A28U A41U A64G C75U A120U G140A], the “polymerase ribozyme fitness (log ratio)” value was no more than -4.2.
With GGAUCUUCUCGAUCUAACAAAAUAGCCAAAUCUGCCACAAAGCUUGAGAGCAUCUUCGGAUGCAGAGGCGGCAGCCUUCGGUGGCGCUAUAGCGCCAACGUUCUCAACUAUGACACGCAAAACGCGUGCUCCGUUGAAUGGAGUUUAUCAUG [A23U A26C G88U] the “polymerase ribozyme fitness (log ratio)” value was no more than -4.2.
With GGAUCUUCUCGAUCUAACAAAAUAGACAAAUCUGCCACACAGCUUGAGAGCAUCUUAGGAUGCAGAGGCGACAGCCUUCGGUGGCGCGAUAGCGCCAACGUUCUCAACUAUGACACGCAAAACGCGUGCUCCGUUGAAUGGAGUUUAUCAUG [A23U A40C C57A G71A] the “polymerase ribozyme fitness (log ratio)” value was no more than -4.2.
For GGAUCUUCUCGAUCUAACAAAAUAGACGAAUCUGCCACAAAGCUUGAGAGCAUCAUCGAAUGCAGAGGCGGCAGCCUGCGGUGGCGCGAUAGCGCCAACGUUCUCAACUAUGACACGCAAAACGCGUACUCCGUUGAAUGGAGUUUAUCAUG [A23U A28G U55A G59A U78G G128A], the “polymerase ribozyme fitness (log ratio)” value was -3.79.
With GGAUCUUCUCGAUCUAACAAAAUAGACAAAUCUGCCACAUAGCUUGAGAGCAUCUUCGGAUGCAGAGGCGGCGGCCUUCGGUGGCGCGAUAGCGCCAACGUUCUCAACUAUGACACGCAAAACGCGUGCUCCGUUGAAUGGAGUUUAUCAUG [A23U A40U A73G] the “polymerase ribozyme fitness (log ratio)” value was no more than -4.2.
In the case of GGAUCUUCUCGAUCUAACAAAAUAGACAAAUCUGCCACAAGGCUUGAGAGCAUCUUCGGAUGCAGAGGCGGCAGCCUUCGGUGGCGCGAUAGCGCCAACGUUCUCAACUAUGACACGCAAAACGCGUGCUCCGUUGAAUGGAGUUUAUCAUG [A23U A41G], the “polymerase ribozyme fitness (log ratio)” value is reported as -3.88.
